{"source": "the supplement of paper PMC8728848", "assay_in_all_cases": "glycan array binding signal (z-score within array); higher = stronger binding", "settings_in_all_cases": "glycan notation: IUPAC condensed, linker removed", "key": {"[1]": {"molecular_target": "Neu5Ac(a2-3)Gal(b1-4)[Fuc(a1-3)]GlcNAc(b1-3)Gal(b1-4)[Fuc(a1-3)]GlcNAc(b1-3)Gal(b1-4)[Fuc(a1-3)]GlcNAc", "how_it_was_run": "(§1)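 Glycan array data were curated from 3228 arrays in the Consortium for Functional Glycomics database and kept only where the protein sequence was available. Glycan names were converted to IUPAC-condensed notation, and columns mapping to the same glycan were averaged. The binding signal is a within-array Z-score, averaged across arrays of the same protein sequence at different concentrations or buffers and across linkers. Negative Z-scores can be read as non-binding.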"}, "[2]": {"molecular_target": "Neu5Ac(a2-3)Gal(b1-4)[Fuc(a1-3)]GlcNAc6S", "how_it_was_run": "as §1"}, "[3]": {"molecular_target": "Neu5Ac(a2-3)Gal6S(b1-4)GlcNAc", "how_it_was_run": "as §1"}, "[4]": {"molecular_target": "Neu5Ac(a2-3)Gal6S(b1-4)[Fuc(a1-3)]GlcNAc", "how_it_was_run": "as §1"}, "[5]": {"molecular_target": "Neu5Ac(a2-3)GalNAc", "how_it_was_run": "as §1"}, "[6]": {"molecular_target": "Neu5Ac(a2-3)GalNAc(b1-4)GlcNAc", "how_it_was_run": "as §1"}, "[7]": {"molecular_target": "Neu5Ac(a2-3)[GalNAc(b1-4)]Gal(b1-4)Glc", "how_it_was_run": "as §1"}, "[8]": {"molecular_target": "Neu5Ac(a2-3)[GalNAc(b1-4)]Gal(b1-4)GlcNAc", "how_it_was_run": "as §1"}, "[9]": {"molecular_target": "Neu5Ac(a2-3)[Neu5Ac(a2-6)]GalNAc", "how_it_was_run": "as §1"}, "[10]": {"molecular_target": "Neu5Ac(a2-6)Gal", "how_it_was_run": "as §1"}, "[11]": {"molecular_target": "Neu5Ac(a2-6)Gal(b1-4)Glc", "how_it_was_run": "as §1"}, "[12]": {"molecular_target": "Neu5Ac(a2-6)Gal(b1-4)GlcNAc", "how_it_was_run": "as §1"}, "[13]": {"molecular_target": "Neu5Ac(a2-6)Gal(b1-4)GlcNAc(b1-2)Man(a1-3)[Neu5Ac(a2-6)Gal(b1-4)GlcNAc(b1-2)Man(a1-6)]Man(b1-4)GlcNAc(b1-4)GlcNAc", "how_it_was_run": "as §1"}, "[14]": {"molecular_target": "Neu5Ac(a2-6)Gal(b1-4)GlcNAc(b1-3)Gal(b1-4)GlcNAc", "how_it_was_run": "as §1"}, "[15]": {"molecular_target": "Neu5Ac(a2-6)Gal(b1-4)GlcNAc(b1-3)Gal(b1-4)[Fuc(a1-3)]GlcNAc(b1-3)Gal(b1-4)[Fuc(a1-3)]GlcNAc", "how_it_was_run": "as §1"}, "[16]": {"molecular_target": "Neu5Ac(a2-6)Gal(b1-4)GlcNAc6S", "how_it_was_run": "as §1"}, "[17]": {"molecular_target": "Neu5Ac(a2-6)GalNAc", "how_it_was_run": "as §1"}, "[18]": {"molecular_target": "Neu5Ac(a2-6)GalNAc(b1-4)GlcNAc", "how_it_was_run": "as §1"}, "[19]": {"molecular_target": "Neu5Ac(a2-8)Neu5Ac", "how_it_was_run": "as §1"}, "[20]": {"molecular_target": "Neu5Ac(a2-8)Neu5Ac(a2-3)Gal(b1-4)Glc", "how_it_was_run": "as §1"}, "[21]": {"molecular_target": "Neu5Ac(a2-8)Neu5Ac(a2-3)[GalNAc(b1-4)]Gal(b1-4)Glc", "how_it_was_run": "as §1"}, "[22]": {"molecular_target": "Neu5Ac(a2-8)Neu5Ac(a2-8)Neu5Ac", "how_it_was_run": "as §1"}, "[23]": {"molecular_target": "Neu5Ac(a2-8)Neu5Ac(a2-8)Neu5Ac(a2-3)Gal(b1-4)Glc", "how_it_was_run": "as §1"}, "[24]": {"molecular_target": "Neu5Ac(a2-8)Neu5Ac(a2-8)Neu5Ac(a2-3)[GalNAc(b1-4)]Gal(b1-4)Glc", "how_it_was_run": "as §1"}, "[25]": {"molecular_target": "Neu5Ac(a2-8)Neu5Ac(a2-8)Neu5Ac(a2-8)Neu5Ac(a2-3)[GalNAc(b1-4)]Gal(b1-4)Glc", "how_it_was_run": "as §1"}, "[26]": {"molecular_target": "Neu5Ac(b1-6)GalNAc", "how_it_was_run": "as §1"}, "[27]": {"molecular_target": "Neu5Ac(b2-6)Gal(b1-4)GlcNAc", "how_it_was_run": "as §1"}, "[28]": {"molecular_target": "Neu5Ac9Ac(a2-6)Gal(b1-4)GlcNAc", "how_it_was_run": "as §1"}, "[29]": {"molecular_target": "Neu5Gc(a2-3)Gal(b1-3)GlcNAc", "how_it_was_run": "as §1"}, "[30]": {"molecular_target": "Neu5Gc(a2-3)Gal(b1-3)[Fuc(a1-4)]GlcNAc", "how_it_was_run": "as §1"}, "[31]": {"molecular_target": "Neu5Gc(a2-3)Gal(b1-4)Glc", "how_it_was_run": "as §1"}, "[32]": {"molecular_target": "Neu5Gc(a2-3)Gal(b1-4)GlcNAc", "how_it_was_run": "as §1"}, "[33]": {"molecular_target": "Neu5Gc(a2-3)Gal(b1-4)[Fuc(a1-3)]GlcNAc", "how_it_was_run": "as §1"}, "[34]": {"molecular_target": "Neu5Gc(a2-3)Gal(b1-4)[Fuc(a1-4)]GlcNAc", "how_it_was_run": "as §1"}, "[35]": {"molecular_target": "Neu5Gc(a2-6)Gal(b1-4)GlcNAc", "how_it_was_run": "as §1"}, "[36]": {"molecular_target": "Neu5Gc(a2-6)GalNAc", "how_it_was_run": "as §1"}}, "note": "This is one part of the list.", "data": [{"binder": "FBG3 (Homo sapiens), Q9H4M3 (protein) MAVGNINELPENILLELFTHVPARQLLLNCRLVCSLWRDLIDLVTLWKRKCLREGFITEDWDQPVADWKIFYFLRSLHRNLLHNPCAEEGFEFWSLDVNGGDEWKVEDLSRDQRKEFPNDQVKKYFVTSYYTCLKSQVVDLKAEGYWEELMDTTRPDIEVKDWFAARPDCGSKYQLCVQLLSSAHAPLGTFQPDPATIQQKSDAKWREVSHTFSNYPPGVRYIWFQHGGVDTHYWAGWYGPRVTNSSITIGPPLP", "values": [{"measurement": "glycan array binding signal (z-score)", "setting": "[1]", "value": -0.514}, {"measurement": "glycan array binding signal (z-score)", "setting": "[2]", "value": -0.392}, {"measurement": "glycan array binding signal (z-score)", "setting": "[3]", "value": -0.101}, {"measurement": "glycan array binding signal (z-score)", "setting": "[4]", "value": -0.428}, {"measurement": "glycan array binding signal (z-score)", "setting": "[5]", "value": -0.343}, {"measurement": "glycan array binding signal (z-score)", "setting": "[6]", "value": -0.571}, {"measurement": "glycan array binding signal (z-score)", "setting": "[7]", "value": -0.404}, {"measurement": "glycan array binding signal (z-score)", "setting": "[8]", "value": -0.397}, {"measurement": "glycan array binding signal (z-score)", "setting": "[9]", "value": -0.518}, {"measurement": "glycan array binding signal (z-score)", "setting": "[10]", "value": 0.511}, {"measurement": "glycan array binding signal (z-score)", "setting": "[11]", "value": -0.34}, {"measurement": "glycan array binding signal (z-score)", "setting": "[12]", "value": -0.28}, {"measurement": "glycan array binding signal (z-score)", "setting": "[13]", "value": -0.303}, {"measurement": "glycan array binding signal (z-score)", "setting": "[14]", "value": -0.545}, {"measurement": "glycan array binding signal (z-score)", "setting": "[15]", "value": -0.363}, {"measurement": "glycan array binding signal (z-score)", "setting": "[16]", "value": 0.242}, {"measurement": "glycan array binding signal (z-score)", "setting": "[17]", "value": -0.355}, {"measurement": "glycan array binding signal (z-score)", "setting": "[18]", "value": -0.622}, {"measurement": "glycan array binding signal (z-score)", "setting": "[19]", "value": -0.471}, {"measurement": "glycan array binding signal (z-score)", "setting": "[20]", "value": -0.551}, {"measurement": "glycan array binding signal (z-score)", "setting": "[21]", "value": -0.623}, {"measurement": "glycan array binding signal (z-score)", "setting": "[22]", "value": -0.672}, {"measurement": "glycan array binding signal (z-score)", "setting": "[23]", "value": -0.429}, {"measurement": "glycan array binding signal (z-score)", "setting": "[24]", "value": 0.271}, {"measurement": "glycan array binding signal (z-score)", "setting": "[25]", "value": -0.467}, {"measurement": "glycan array binding signal (z-score)", "setting": "[26]", "value": -0.207}, {"measurement": "glycan array binding signal (z-score)", "setting": "[27]", "value": -0.75}, {"measurement": "glycan array binding signal (z-score)", "setting": "[28]", "value": 0.011}, {"measurement": "glycan array binding signal (z-score)", "setting": "[29]", "value": -0.078}, {"measurement": "glycan array binding signal (z-score)", "setting": "[30]", "value": -0.766}, {"measurement": "glycan array binding signal (z-score)", "setting": "[31]", "value": 0.058}, {"measurement": "glycan array binding signal (z-score)", "setting": "[32]", "value": -0.448}, {"measurement": "glycan array binding signal (z-score)", "setting": "[33]", "value": -0.021}, {"measurement": "glycan array binding signal (z-score)", "setting": "[34]", "value": -0.596}, {"measurement": "glycan array binding signal (z-score)", "setting": "[35]", "value": -0.108}, {"measurement": "glycan array binding signal (z-score)", "setting": "[36]", "value": -0.211}]}]}
